Test results taken from PubChem BioAssay AID1347071 (National Center for Advancing Translational Sciences (NCATS), 2019).
Out of some 410,000 compounds screened, about 260 (0.063%) were called active. The shares of active, inactive and inconclusive entries below differ from those in the screen. Calls follow the shape of the dose curve; as a rule, active = well fitted activation curve with a large enough effect; inconclusive = small, poorly fitted or top-dose-only effect; inactive = no such curve, though single readings can be large or run the other way. No potency is given beside an inconclusive call; the fits are too rough.

Test: qHTS for compounds that reverse cellular toxicity of Amyloid beta (A-beta) peptide in yeast: Primary Screen; also: nearly all actives have a fitted effect of over 55% in size
Conditions: yeast expressing A-beta42, growth rescue, OD600, 48 h; growth rescue: at 46.1 µM (top of the series), 0% DMSO, 100% iron-clioquinol control
In short: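 Yeast growth medium received pinned compounds, then yeast cells expressing toxic A-beta were added; plates incubated at 30 C for 48 hr. Growth read as absorbance at 600 nm, normalized to DMSO and equimolar FeCl3 plus clioquinol controls.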
Potency is read from the fitted curve at half-maximal effect; tags tell the direction and shape of the fitted curve.

Structure (SMILES)	Potency	growth rescue
CC1CCCN(C(=S)Nc2ccc(Nc3ccccc3)cc2)C1 (stereo not given)	inconclusive [activator, single point]	
O=C(COC(=O)c1ccccc1Nc1ccc(SC(F)F)cc1)NC1CC1	inconclusive [activator, partial curve, poor fit]	
CN(CC1COc2ccccc2O1)C(=S)NC1CCCCC1 (stereo not given)	inconclusive [activator, single point]	
Cc1ccc(F)cc1NC(=O)COC(=O)C1CCN(c2ccc(C(F)(F)F)cn2)CC1	inconclusive [activator, single point]	
Nc1ccccc1Sc1c[nH]c2ccccc12	inconclusive [activator, partial curve]	
CCCC(=O)Nc1cc(Cl)ccc1C	inconclusive [activator, single point]	
CCCCCCCCCCCCCCCCCCNc1ccn(C2OC(COP(=O)(O)OCC3OC(n4cc(F)c(=O)[nH]c4=O)CC3O)C(O)C2O)c(=O)n1 (stereo not given)	inconclusive [activator, single point]	
CCOC(=O)c1sc(NC(=O)CCSC)nc1C	inconclusive [activator, partial curve, poor fit]	
O=C(NNC(=S)Nc1ccc(F)cc1)c1cccc([N+](=O)[O-])c1	inactive	
CC(C)c1ccc(O)c(NC(=S)NC(=O)c2ccc3c(c2)OCO3)c1	inconclusive [activator, single point]	
O=C(CSc1nnc(CNc2ccccc2)o1)N1CCCc2ccccc21	inconclusive [activator, full curve, poor fit]	
O=C(Nc1ccccc1Cl)c1cc(C2CCCCN2C(=O)c2ccccc2)on1 (stereo not given)	inconclusive [activator, single point]	
COc1ccccc1C(=O)n1nc(C)cc1C		inconclusive: 32.4% [activator]
O=C(Cc1ccc(Cl)cc1)N1CCN(c2ccccc2)CC1	inactive	
COc1ccc(NC(=S)NC(=O)/C=C/c2ccco2)c(OC)c1	inconclusive [activator, partial curve, poor fit]	
O=C(NCCSCc1c(F)cccc1Cl)Nc1ccccc1	inactive	
O=C1[C@H]2[C@@H](c3ccc(C(F)(F)F)cc3)N[C@]3(CCCN(Cc4ccc(Cl)cc4)C3=O)[C@H]2C(=O)N1Cc1ccccc1	active: 8.91 µM	
COCCN(Cc1cn(C)nc1-c1ccc(Oc2ccccc2)cc1)C(C)C	inconclusive [activator, single point]	
CCCCC(=O)Nc1cc(-c2cn3cccnc3n2)ccc1C	inactive	
Oc1ccc(NC(=S)Nc2ccc(O)cc2)cc1	inactive	
COC(=O)C1=C(C)OC(N)=C(C#N)C1c1cc(OC)ccc1OC (stereo not given)		inconclusive: 43.5% [activator]
CCNC(=S)Nc1ccc2c(c1)c(=O)n(C)n2-c1ccc(C(C)(C)C)cc1	inactive	
CCNC(=O)CC1SC(=Nc2cccc(Cl)c2C)N(C)C1=O (stereo not given)	inconclusive [activator, single point]	
O=C(CC12CC3CC(CC(C3)C1)C2)N/N=C/c1ccncc1	inconclusive [activator, partial curve, poor fit]	

Structure (SMILES)	Potency	growth rescue
Cc1ccc(C)c(-n2c(-c3ccc4c(c3)OCO4)n[nH]c2=S)c1	inconclusive [activator, single point]	
O=S(=O)(c1ccccc1)n1nc(-c2ccc(Cl)cc2)nc1NCc1ccc(F)cc1	inactive	
Cc1ccccc1-n1c(=O)c2ccccc2n(Cc2ccc(F)cc2)c1=O	inactive	
COc1ccc(CSCCNC(=S)Nc2ccccc2)cc1Cl	inconclusive [activator, single point]	
COc1ccc(S(=O)(=O)Nc2nnc(CC(C)(C)C)s2)cc1	inactive	
Cc1nc2ccccc2c2nc(N)nn12	inconclusive [activator, partial curve, poor fit]	
CCS(=O)(=O)c1c(S(=O)(=O)CC)c2cc(C(C)(C)C)ccn2c1C(=O)c1ccc(F)cc1	inactive	
COc1ccc2nc(Cl)cc(Cl)c2c1	inactive	
CCOC(=O)c1ccc(NC(=O)CSc2nnc(-c3cccs3)n2C)cc1	inactive	
CCCn1nnnc1NC(=O)COc1ccc(Cl)c(C)c1	inconclusive [activator, full curve, poor fit]	
Cc1ccc(C(=O)c2cc([N+](=O)[O-])ccc2N2CCOCC2)cc1C	inconclusive [activator, single point]	
Cc1ccc(C(C(=O)NC2CCCC2)N(Cc2ccc(F)cc2)C(=O)c2snc(C(N)=O)c2N)o1 (stereo not given)	inconclusive [activator, single point]	
CC(C)c1ccccc1NC(=O)COC(=O)Cc1ccsc1	inconclusive [activator, single point]	
O=C(/C=C/c1ccc(O)c(O)c1)OC(Cc1ccc(O)c(O)c1)C(=O)O (stereo not given)	inactive	
CCCCOc1ccccc1C(=O)NNC(=S)NC(=O)c1ccccc1[N+](=O)[O-]	inconclusive [activator, single point]	
COc1ccc(C(=O)NNC(=S)NC(=O)c2cccc([N+](=O)[O-])c2)cc1	inconclusive [activator, full curve]	
CCc1ccc(C(=O)NC(=S)Nc2ccc(N3CCOCC3)cc2)cc1	inconclusive [activator, partial curve, poor fit]	
CC1(C(=O)Nc2ccc3c(c2)OCO3)CCN1C(=O)C1(c2ccc(Cl)cc2)CC1 (stereo not given)	inactive	
Cc1ccc(NC(=O)C2CCCN2S(=O)(=O)c2ccc3c(c2)n(C)c(=O)c(=O)n3C)cc1 (stereo not given)	inconclusive [activator, single point]	
COC(=O)c1ccc(S(=O)(=O)NCCSc2nnc3c4ccccc4n(C)c3n2)cc1	inconclusive [activator, partial curve, poor fit]	
O=C(NCc1ccccc1)C1=C[C@@H](c2coc3ccccc3c2=O)C[C@@H](OCc2ccc(CO)cc2)O1	inactive	
CC(=O)Nc1cccc(NC(=S)Nc2cccc3ccccc23)c1	inconclusive [activator, partial curve]	
CC(C)n1ncc2c(C(=O)N3CCN(Cc4ccc(Br)s4)CC3)cc(C3CC3)nc21	inconclusive [activator, single point]	
CC1(C)CC2CC(C)(CN2C(=S)Nc2ccccc2F)C1 (stereo not given)	inconclusive [activator, single point]	

Structure (SMILES)	Potency	growth rescue
Cc1ccc(N(Cc2cccs2)C(=O)Nc2cccc(Cl)c2)cc1	inactive	
CC(C)CNC(=S)N1CCC(Cc2ccccc2)CC1	inconclusive [activator, single point]	
COc1cccc(CC(=O)Nc2ccccc2N2CCCC2)c1	inconclusive [activator, single point]	
c1ccc(-n2nnnc2-c2cnc(-c3cccnc3)nc2-c2cccs2)cc1	inactive	
CN(c1ccc(Cl)cc1)c1cc2c(c3c1ccn3C)C1CCC2O1 (stereo not given)	inconclusive [activator, single point]	
COC(=O)N1CCCC(c2cc(C(=O)Nc3ccccc3Cl)no2)C1 (stereo not given)	inactive	
CC(C)OCCCNc1sc(S(=O)(=O)c2ccccc2)nc1S(=O)(=O)c1ccc(Cl)cc1	inactive	
CC(C)N(CCNC(=O)c1ccc(OCC2CCCO2)cc1)C(C)C (stereo not given)	inconclusive [activator, single point]	
O=C(C1COc2ccccc2O1)N1CCN(c2nc3c(F)cccc3s2)CC1 (stereo not given)	active: 12.6 µM	
CCCNC(=O)CN1C(=O)COc2ccc(S(=O)(=O)N3CC(C)CC(C)C3)cc21 (stereo not given)	inactive	
Cc1ccc2c(c1)N(C(=O)CCC(=O)Nc1ccc(F)cc1F)CC(C)O2 (stereo not given)	inactive	
CCOc1ccccc1N(C)C(=O)c1cc(S(=O)(=O)NCCc2ccc(Cl)cc2)ccc1F	inactive	
O=C(O)c1ccc(C(=O)c2cc([N+](=O)[O-])cc([N+](=O)[O-])c2)cc1	inconclusive [activator, partial curve]	
CC(=O)Oc1ccc(Cn2cnc3cc4ccccc4cc32)cc1	inconclusive [activator, full curve]	
NS(=O)(=O)c1ccc(NC(=S)Nc2ccc(OCc3ccccc3)cc2)cc1	inconclusive [activator, single point]	
O=C(c1ccccc1)c1cccn1CC(=O)N1CCN(c2ccc(F)cc2)CC1	inconclusive [activator, single point]	
CCCNC(=O)NC(=O)COc1ccc2oc3ccccc3c2c1	inconclusive [activator, full curve]	
N#Cc1c(Nc2ccccc2Cl)s[nH]c1=O	inconclusive [activator, single point]	
Cc1ccc(NC(=O)C(OC(=O)c2ccc(F)cc2)c2ccccc2)cc1Cl (stereo not given)	inconclusive [activator, partial curve, poor fit]	
Cc1cc(=O)n(CC(=O)Nc2ccc([N+](=O)[O-])cc2)c(-n2nc(C)cc2C)n1	inconclusive [activator, single point]	
Cc1ccccc1NC(=O)Cn1c(=O)n(CCc2ccccc2)c(=O)c2sc3ccccc3c21	inactive	
CCNc1nc(NC(C)C)nc(Oc2ccc(/C=N/O)cc2)n1	inconclusive [activator, full curve]	
